± gives the standard deviation of the averaged measurements. The full ranking holds about 33,000 sequences; the median of “E-score (dimensionless, -0.5 to 0.5)” is about -0.049, and the highest 2% start at about 0.37. This is one part of the list.
The sequences below were run on T1, PmTbr T-box DNA-binding domain (GST fusion) (assay: PBM E-score of 8-mer (E-score (dimensionless, -0.5 to 0.5)); Tbr is Tbrain of the sea star Patiria miniata (Pm) or the sea urchin Strongylocentrotus purpuratus (Sp); higher = stronger binding preference; most listed sequences are background and not binding sites). Conditions: the construct has about 5 more residues each side.
T1 sequence: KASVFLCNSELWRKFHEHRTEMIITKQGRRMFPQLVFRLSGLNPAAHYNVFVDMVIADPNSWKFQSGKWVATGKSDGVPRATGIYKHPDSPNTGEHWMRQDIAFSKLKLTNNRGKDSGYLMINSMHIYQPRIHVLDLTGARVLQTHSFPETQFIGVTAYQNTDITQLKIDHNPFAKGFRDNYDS
Summary of the method: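 Universal Agilent oligonucleotide arrays, made double-stranded by primer extension, were incubated with 200 nM GST-fused Tbr T-box DNA-binding domain in PBS (pH 7.5). The protein was expressed in BL21 E. coli at 20 °C and purified by glutathione affinity chromatography. After scanning and quantification, the Universal PBM Analysis Suite assigned an enrichment E-score to each ungapped 8-mer, averaged over duplicate arrays.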

In order of rising “PBM E-score of 8-mer” value:
1. TCCGAAGA  -0.368 ± 0.0082
2. AGAGTCTG  -0.329 ± 0.03
3. TAGCCAGA  -0.293 ± 0.014
4. GGGCCGCA  -0.277 ± 0.082
5. CGAGCGTA  -0.276 ± 0.045
6. CAGGGAAG  -0.247 ± 0.0093
7. CCCCCGCA  -0.247 ± 0.079
8. CAGAAAGG  -0.245 ± 0.016
9. CTAGATCC  -0.244 ± 0.068
10. CATAGCTC  -0.231 ± 0.059
11. CTCCTTGA  -0.226 ± 0.011
12. TAAGACTA  -0.217 ± 0.016
13. GCCCACCA  -0.212 ± 0.02
14. GGCAATCA  -0.21 ± 0.0063
15. ACGGTGAA  -0.208 ± 0.055
16. ACAGGGAA  -0.205 ± 0.015
17. AATTGTAA  -0.204 ± 0.043
18. CTTCAATA  -0.203 ± 0.14
19. AAGAACCC  -0.192 ± 0.042
20. AGATCAAA  -0.189 ± 0.031
21. TAGACGAA  -0.182 ± 0.015
22. AGTTGGAC  -0.181 ± 0.0063
23. ATTTTGGG  -0.18 ± 0.0029
24. CCACGGAG  -0.178 ± 0.036
25. CCCAATAC  -0.178 ± 0.025
26. AGTCCCAG  -0.177 ± 0.024
27. AAGCTTAA  -0.173 ± 0.054
28. GTCCACGA  -0.173 ± 0.066
29. CAATACCC  -0.172 ± 0.013
30. CATATGAA  -0.172 ± 0.081
31. CTGAGTAA  -0.172 ± 0.0019
32. AGCCCAGC  -0.155 ± 0.077
33. ATACCCTG  -0.154 ± 0.04
34. CGTCTCAG  -0.15 ± 0.0054
35. ACGATGTA  -0.149 ± 0.036
36. AAAAAATT  -0.146 ± 0.14
37. AAGCTAAG  -0.14 ± 0.064
38. CGGAGAAC  -0.132 ± 0.049
39. ACAAACCA  -0.13 ± 0.032
40. GGAGCTAC  -0.125 ± 0.022
41. AAATGAAG  -0.124 ± 0.053
42. GTACTCGA  -0.12 ± 0.059
43. GAATTTGA  -0.119 ± 0.025
44. TCCAAGAA  -0.115 ± 0.065
45. AACTACCA  -0.113 ± 0.011
46. CTAAGCCA  -0.113 ± 0.031
47. CATGTTGG  -0.109 ± 0.0048
48. CTTAAAGA  -0.108 ± 0.021
49. CCTGTAGA  -0.104 ± 0.038
50. CAGATTAC  -0.101 ± 0.043
51. ACCGACGG  -0.0988 ± 0.015
52. CCCAAGCG  -0.096 ± 0.045
53. TACGCTCA  -0.092 ± 0.038
54. GCTCTGCA  -0.0825 ± 0.061
55. AACTTGTA  -0.0779 ± 0.15
56. CATAACAG  -0.072 ± 0.021
57. GCCATCTA  -0.0654 ± 0.0076
58. CCAGTTTC  -0.0634 ± 0.028
59. CTAAACCC  -0.0556 ± 0.0056
60. AACGCGCA  -0.0545 ± 0.015
61. TTCTCAAA  -0.0529 ± 0.12
62. ACGAGTAT  -0.0506 ± 0.042
63. ACAGTGGA  -0.0479 ± 0.036
64. AGAATAAG  -0.0436 ± 0.0079
65. GAAGGGAA  -0.0404 ± 0.0073
66. GCGTCCAA  -0.0381 ± 0.029
67. AAACGGAA  -0.0365 ± 0.0041
68. AAAGATCG  -0.0344 ± 0.064
69. AACGCATA  -0.0282 ± 0.0057
70. CTTTGGTA  -0.0263 ± 0.029
71. GAGATCTA  -0.0254 ± 0.096
72. AACTCGAG  -0.00631 ± 0.0034
73. TTACGCAA  -0.00426 ± 0.0092
74. ATTTACCC  -0.00345 ± 0.037
75. CGATGATA  -0.00192 ± 0.05
76. AGCTAATC  -0.00077 ± 0.0068
77. GAGAATCC  0.0014 ± 0.086
78. ACCAAGCT  0.0259 ± 0.092
79. CGCAATAG  0.0322 ± 0.0079
80. GGAGTGTA  0.0383 ± 0.0057
81. CACCAGGG  0.0472 ± 0.096
82. CAAACTTA  0.0492 ± 0.088
83. ACCATAAA  0.0538 ± 0.038
84. AGAGTGCA  0.0698 ± 0.0037
85. ATAATAAC  0.077 ± 0.051
86. ACCTCTCC  0.0785 ± 0.026
87. CAGGGTCC  0.0802 ± 0.01
88. GTACAGTA  0.0854 ± 0.013
89. CTTAATAC  0.0863 ± 0.013
90. TGGCGAAA  0.0871 ± 0.075
91. GGTCGTCA  0.0911 ± 0.017
92. AGGAACGG  0.0966 ± 0.02
93. AACAGTGA  0.1 ± 0.0087
94. CTGTGTTC  0.102 ± 0.027
95. GCCTGTGA  0.107 ± 0.014
96. ACGCTCGC  0.122 ± 0.0073
97. CCGTTAAC  0.122 ± 0.0013
98. AGTCACAG  0.135 ± 0.054
99. ACTCCACG  0.162 ± 0.07
100. CGATGGCA  0.168 ± 0.081
101. CACCACGG  0.176 ± 0.059
102. TAGCACAA  0.177 ± 0.009
103. ACTGCTGA  0.181 ± 0.035
104. TGTTACAA  0.191 ± 0.035
105. CACATACA  0.229 ± 0.011
106. CACCCAGG  0.237 ± 0.011
107. GTCGTCAC  0.3318 ± 0.0028
108. GTGATAAA  0.339 ± 0.07
109. GAGTGTCA  0.436 ± 0.0041
110. ATTAACAC  0.449 ± 0.0075
